# Laboratory results published in paper PMC13083723 (Patterns, 2026).
# In all, about 5,400 compounds went through this assay and about 190 (3.5%) showed an effect of 50% or more. The list shows a part of the results.
# Tested on: Vero-E6
# Test: primary screen, phospholipidosis by LipidTOX staining; higher = more effect of the substance
# Settings: 10 µM
# Procedure, shortened: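 Single-concentration screen at 10 μM, with DMSO 0.1 v/v % and amiodarone 10 μM as controls. Read-out is LipidTOX Red phospholipid staining, which tolerates aldehyde fixation, in Vero-E6 cells.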
row,SMILES,result_ITMP [%]
1,N#Cc1c(N)nc(SCc2ncc[nH]2)c(C#N)c1-c1ccc(O)cc1,1.67
2,CN[C@H]1C(=O)N[C@@H]2Cc3ccc(cc3)Oc3cc4cc(c3O[C@@H]3O[C@H](C(=O)O)[C@@H](O)[C@H](O)[C@H]3NC(=O)CCCCCCCCC(C)C)Oc3ccc(cc3Cl)[C@@H](O)[C@@H]3NC(=O)[C@H](NC(=O)[C@@H]4NC(=O)[C@@H](NC2=O)c2cc(cc(O)c2Cl)Oc2cc1ccc2O)c1ccc(O)c(c1)-c1c(O[C@H]2O[C@H](CO)[C@@H](O)[C@H](O)[C@@H]2O)cc(O)cc1[C@@H](C(=O)NCCCN(C)C)NC3=O,0.77
3,COc1cc(OC)cc(C(=O)NNC(=O)Nc2cccc3ccccc23)c1,-1.62
4,CN[C@@H]1[C@@H](O)[C@@H](O[C@@H]2[C@@H](O)[C@H](O[C@H]3OC(CN)=CC[C@H]3N)[C@@H](N)C[C@H]2N)OC[C@]1(C)O,-1.73
5,O=C(N[C@H]1CN2CCC1CC2)c1ccc(Cl)cc1,-0.98
6,Cc1oc2ccccc2c1CNC(=O)NCc1cccs1,-6.74
7,COc1cc(O)c2c(c1)C(=O)c1cc(C)cc(O)c1C2=O,-10.6
8,CC(C)[C@H]1c2ccc(F)cc2CC[C@@]1(CCN(C)CCCc1nc2ccccc2[nH]1)OC(=O)C1CC1,68.1
9,CCOC(=O)n1ccn(C)c1=S,-1.98
10,COc1cc(N2CCC(N)CC2)ccc1Nc1ncc(Cl)c(-c2c[nH]c3ccccc23)n1,15.8
11,CC1(O)CCC(C(C)(C)O)CC1 (stereo not drawn),-1.81
12,N#Cc1ccc(N2CCN(C(=O)COc3ccc4[nH]cc(CCN)c4c3)CC2)cc1,1.4
13,C[C@H](N)[C@H](O)c1cccc(O)c1,-8.67
14,CC(=O)OCC(=O)[C@@]1(O)CCC2C3CCC4=CC(=O)CC[C@]4(C)C3C(=O)C[C@@]21C (stereo partly drawn),2.13
15,COC(=O)c1ccccc1NC(=O)c1ccc(F)cc1,0.11
16,CC(=O)[C@@]1(O)CC[C@H]2[C@@H]3C[C@H](C)C4=CC(=O)CC[C@]4(C)[C@H]3CC[C@@]21C,-2.43
17,CCN(CC)CCOC(=O)C(Cc1cccc2ccccc12)CC1CCCO1 (stereo not drawn),30.3
18,CC1=C(/C=C/C(C)=C/C=C/C(C)=C/C(=O)O)C(C)(C)CCC1 [R4A_0003961_001 / SPE_K71879491],4.7
19,CCC(=N\O)/C(C)=C/c1ccc(F)cc1,7.9
20,COc1ccc(-c2nc(-c3ccc(-c4cccc(Cl)c4)o3)[nH]c2-c2ccc(OC)cc2)cc1,-2.28
21,Cc1nc2sccn2c(=O)c1CCN1CCC(=C(c2ccccc2)c2ccc(F)cc2)CC1,20.4
22,CC(C)(C)C(=O)C(Oc1ccc(Cl)cc1)n1ccnc1 (stereo not drawn),-4.32

row,SMILES,result_ITMP [%]
1,Cc1ccccc1OCC(O)CO (stereo not drawn),-0.54
2,CC1=C(CC(=O)O)c2cc(F)ccc2/C1=C\c1ccc(S(C)(=O)=O)cc1,-2.65
3,CC(C)N(CCCNC(=O)Nc1ccc(C(C)(C)C)cc1)C[C@H]1O[C@@H](n2cc(Br)c3c(N)ncnc32)[C@H](O)[C@@H]1O,-0.74
4,COc1ccc(-c2csc(NC(=O)[C@H]3CCCCN3S(=O)(=O)c3ccc(C)cc3)n2)cc1,2.21
5,CS(=O)(=O)c1ccc(-c2cc(Br)sc2-c2ccc(F)cc2)cc1,-2.33
6,O=C1CN(/N=C/c2ccc([N+](=O)[O-])o2)C(=O)N1,-2.22
7,c1ccc2c(c1)CN1CCCC1=N2,-2.97
8,CCCCNc1cc(C(=O)O)cc(S(N)(=O)=O)c1Oc1ccccc1,0.48
9,C[C@H](Cn1cnc2c(N)ncnc21)OCP(=O)(O)O,-4.42
10,CNC(=O)c1c(I)c(C(=O)NCC(=O)Nc2c(I)c(C(=O)O)c(I)c(C(=O)NCCO)c2I)c(I)c(N(C)C(C)=O)c1I,-8.75
11,C=CCN1C[C@H](C)N([C@H](c2ccc(C(=O)N(CC)CC)cc2)c2cccc(OC)c2)C[C@H]1C,-0.44
12,CCO[C@@H](Cc1ccc(OCCc2ccc(OS(C)(=O)=O)cc2)cc1)C(=O)O,-5.22
13,CCc1cc(O)c(Oc2ccc(C(N)=O)cc2F)cc1F,-1.4
14,C=CCN1C[C@H](C)N([C@H](c2ccc(C(=O)N(CC)CC)cc2)c2cccc(O)c2)C[C@H]1C,-2.02
15,CCOC(=O)[C@H](CCc1ccccc1)N[C@@H](C)C(=O)N(CC(=O)O)C1Cc2ccccc2C1,-3.52
16,O=C(NC1CCC1)c1ccc(C#Cc2cccc(F)c2)nc1,1.13
17,Cc1cc(O)c(C(C)C)cc1Cl,-3.91
18,CC(=O)Oc1ccccc1C(=O)Oc1ccccc1C(=O)O,-8.73
19,CN[C@@H]1[C@@H](O[C@H]2O[C@H](CO)[C@@H](N)[C@H](O)[C@H]2O)O[C@H]2C[C@@H](N)[C@H](O[C@H]3[C@H](O)[C@@H](O)[C@H](N)C[C@@H]3N)O[C@@H]2[C@@H]1O,5.54
20,N[C@H](C(=O)O)[C@@H]1CC(Cl)=NO1,-7.23
21,N#CC(c1ccnc(OCc2ccc(CN3CCOCC3)cc2)n1)c1nc2ccccc2s1 (stereo not drawn),1.37
22,O=C(NO)c1cnc(N2CCN(S(=O)(=O)c3ccc4ccccc4c3)CC2)nc1,-0.4

row,SMILES,result_ITMP [%]
1,COc1ccc2c(c1)-c1nn(CCCN(C)C)c3ccc([N+](=O)[O-])c(c13)N2,25.8
2,O=C(NCCCN1CCCCCC1)C(c1ccccc1)C1CCCCC1 (stereo not drawn),36.5
3,O=c1ccn([C@@H]2O[C@H](CO)[C@@H](O)[C@H]2O)c(=O)[nH]1,-9.17
4,COc1ccc2[nH]c(-c3ccccc3)c(CCNC(C)=O)c2c1,-1.61
5,CC(C)(C)c1ccc(C(=O)CCCN2CCC(OC(c3ccccc3)c3ccccc3)CC2)cc1,-10.4
6,CC[C@H](NC(=O)c1c(O)c(-c2ccccc2)nc2ccccc12)c1ccccc1,0.11
7,CCCCCC(O)c1cccc(OCc2ccc3ccccc3n2)c1 (stereo not drawn),-1.34
8,[O-][n+]1cccc(CO)c1,-1.46
9,OC(CC1c2ccccc2-c2cncn21)C1CCCCC1 (stereo not drawn),-1.09
10,COC(=O)Nc1nc2cc(SC(C)C)ccc2[nH]1,-7.27
11,C[C@H]1NC(=O)NC1=O,-2.09
12,O=C(CC12CC3CC(CC(C3)C1)C2)Nc1cccc2nc(NCCNCCO)ccc12,-0.03
13,Cc1ccnc(NS(=O)(=O)c2ccc(N)cc2)n1,-3.55
14,NC(=O)OCC(COC(N)=O)c1ccccc1,-2.04
15,N=C(N)NCc1cccc(I)c1,-3.59
16,CNC[C@H](O)[C@@H](O)[C@H](O)[C@H](O)CO,-1.34
17,COC(=O)N[C@H](C(=O)N[C@@H](Cc1ccccc1)[C@@H](O)CN(Cc1ccc(-c2ccccn2)cc1)NC(=O)[C@@H](NC(=O)OC)C(C)(C)C)C(C)(C)C,0.11
18,O=C1C(CCS(=O)c2ccccc2)C(=O)N(c2ccccc2)N1c1ccccc1 (stereo not drawn),-2.27
19,N.N.O=C([O-])C[O-].[Pt+2],-1.46
20,CN(C)/C=N/c1c(I)cc(I)c(CCC(=O)[O-])c1I,-3.15
21,COC(=O)Nc1ccc(-c2nc(N3CCOCC3)c3cnn(C4CCN(C(=O)OC)CC4)c3n2)cc1,-3.74
22,Clc1ccc(C2=CCCC3CCC2N3)cn1 (stereo not drawn),-1.49

row,SMILES,result_ITMP [%]
1,CN1CCC(Nc2ncc3ncnc(Nc4ccc(F)c(Cl)c4)c3n2)CC1,76.5
2,COc1ccc2c(C)nc(Nc3nc(=O)c(C)c(C)[nH]3)nc2c1,0.3
3,CC1=CC(=C(c2ccc(N)cc2)c2ccc(N)cc2)C=CC1=N,-10.8
4,Cc1ccc(-c2ncccn2)c(C(=O)N2C[C@H](COc3ccc(F)cn3)CC[C@H]2C)c1,3.94
5,CC(C)n1c(/C=C/[C@@H](O)C[C@@H](O)CC(=O)[O-])c(-c2ccc(F)cc2)c2ccccc21,0.97
6,O=c1cc(-c2ccccc2)oc2cc(O)c(O)c(O)c12,-2.06
7,CC(C)(Oc1ccc(Cl)cc1)C(=O)N1CSCC1C(=O)O (stereo not drawn),-4.08
8,CN(C)CCn1nnnc1SCC1=C(C(=O)O)N2C(=O)[C@@H](NC(=O)Cc3csc(N)n3)[C@H]2SC1,0.61
9,CN1CCN(c2ccc(Nc3ncc4cc(C#N)c(=O)n(C5CCCC5)c4n3)cc2)CC1,-0.88
10,NCc1ccccc1Sc1ccccc1CO,8.83
11,CC(C)N(CCC(C(N)=O)(c1ccccc1)c1ccccn1)C(C)C (stereo not drawn),-1.61
12,CC(=O)[O][Hg][c]1ccccc1,2.59
13,CC(=O)N[C@@H](CS)C(=O)O,0.27
14,C[C@]1(c2nc3c(C(N)=O)cccc3[nH]2)CCCN1,-1.53
15,O=C(O)Cc1cccc(OCCCN(Cc2cccc(C(F)(F)F)c2Cl)CC(c2ccccc2)c2ccccc2)c1,-0.56
16,O=[N+]([O-])/C=C/c1ccc2c(c1)OCO2,4.02
17,CC(=O)O[C@H]1C[C@@]2(C)[C@@H](C[C@@H](O)[C@H]3[C@@]4(C)CC[C@@H](O)[C@@H](C)[C@@H]4CC[C@@]32C)/C1=C(\CCC=C(C)C)C(=O)O,-4.35
18,O=C(Nc1ccc(S(=O)(=O)C(F)(F)F)cc1)C1=CCN(c2ncccc2C(F)(F)F)CC1,9.06
19,CCCn1c(=O)c2nc(C34CC5CC(CC3C5)C4)[nH]c2n(CCC)c1=O,-1.95
20,CC(C)=CCC[C@](C)(O)[C@@H]1CC=C(C)CC1,-1.53
21,CCn1nc(C2CCN(C(=O)CCO)CC2)nc1-c1cnc(N)c(-c2nnc(C(C)(C)C)o2)n1,-0.52
